According to the supplement of paper PMC4604168 (melanoma cell lines):
The list shows a part of the results. Repeats are few or missing, and single values can be far off.

Columns and labels:
Assay in all cases: cell count relative to DMSO control; melanoma cells; higher = more viable cells
Conditions in all cases: library dose: low library concentration; 72 h
[1] = test system: WM115
[2] = test system: WM1716
[3] = test system: WM1745
[4] = test system: WM3526
[5] = test system: WM3619
[6] = test system: WM451Lu
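Also: cell number obtained by counting DAPI-stained nuclei in high-throughput microscope images with image analysis software, screen run in 1,536-well plates.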

Compound	cell count [1]	cell count [2]	cell count [3]	cell count [4]	cell count [5]	cell count [6]
O=C(O)c1ccc2c(c1)nc(Nc1cccc(Cl)c1)c1ccncc12 + Oc1cc(-c2nc(-c3ccccc3)[nH]c2-c2ccncc2)ccc1Cl [L779450] (first compound 0.4 µM, partner dose 0.2 µM)	91.7%	104%	93.4%	61.6%	92.2%	115%
O=C(Nc1cc(C(F)(F)F)cc(C(F)(F)F)c1)c1cc(Cl)ccc1O + CCCCCCCCCCCC1=C(O)C(=O)C=C(O)C1=O [Embelin] (first compound 0.016 µM, partner dose 1.2 µM)	102%	118%	96.6%	98%	102%	99.3%
O=C(O)c1ccc2c(c1)nc(Nc1cccc(Cl)c1)c1ccncc12 + Cn1c(Nc2ccc(C(F)(F)F)cc2)nc2cc(Oc3ccnc(-c4ncc(C(F)(F)F)[nH]4)c3)ccc21 [CHIR265] (first compound 0.4 µM, partner dose 0.08 µM)	51.4%	91%	61.4%	54.6%	68.6%	80.3%
O=C(Nc1cc(C(F)(F)F)cc(C(F)(F)F)c1)c1cc(Cl)ccc1O + COc1ccc(COc2ccc(Cc3cnc(N)nc3N)cc2OC)cc1 [GW2580] (first compound 0.016 µM, partner dose 1 µM)	107%	120%	121%	104%	88.3%	87.1%
O=C(Nc1cc(C(F)(F)F)cc(C(F)(F)F)c1)c1cc(Cl)ccc1O + Cn1sc(=O)n(Cc2ccccc2)c1=O [TDZD-8] (first compound 0.016 µM, partner dose 0.4 µM)	98.3%	101%	89.7%	107%	97.2%	106%
Cn1nnc2c(C(N)=O)ncn2c1=O [temozolomide] + CC(C)(C)c1cnc(CSc2cnc(NC(=O)C3CCNCC3)s2)o1 [SNS-032] (first compound 2 µM, partner dose 0.01 µM)	102%	74.4%	101%	86%	84.3%	88.7%
O=C(Nc1cc(C(F)(F)F)cc(C(F)(F)F)c1)c1cc(Cl)ccc1O + Cn1cc(/C=C2\C(=O)Nc3cccnc32)c2ccccc21 [GW441756] (first compound 0.016 µM, partner dose 0.4 µM)	111%	118%	89.2%	99.2%	95.7%	94.9%
O=C(Nc1cc(C(F)(F)F)cc(C(F)(F)F)c1)c1cc(Cl)ccc1O + CC(C)CCN1c2nc(Nc3cc(F)c(O)c(F)c3)ncc2N(C)C(=O)C1C [BID1870] (first compound 0.016 µM, partner dose 0.2 µM)	94.2%	73.1%	115%	105%	129%	105%
O=C(O)[C@@H]1[O][Sb](=[O])([O][Sb]2(=[O])[O][C@H]([C@H](O)CO)[C@H](O)[C@H](C(=O)O)[O]2)[O][C@H]([C@H](O)CO)[C@@H]1O (stereo partly drawn) [stibogluconate] + Clc1ccc(Nc2nnc(Cc3ccncc3)c3ccccc23)cc1 [vatalanib] (first compound 2 µM, partner dose 2 µM)	107%	98.2%	93.5%	114%	106%	108%
Cn1nnc2c(C(N)=O)ncn2c1=O [temozolomide] + COc1cc(N2CCC(N3CCN(C)CC3)CC2)ccc1Nc1ncc(Cl)c(Nc2ccccc2S(=O)(=O)C(C)C)n1 [NVP-TAE684] (first compound 2 µM, partner dose 0.08 µM)	96.8%	81.6%	82.4%	108%	108%	102%
O=C(O)[C@@H]1[O][Sb](=[O])([O][Sb]2(=[O])[O][C@H]([C@H](O)CO)[C@H](O)[C@H](C(=O)O)[O]2)[O][C@H]([C@H](O)CO)[C@@H]1O (stereo partly drawn) [stibogluconate] + CN(C)S(=O)(=O)c1ccc2c(c1)/C(=C/c1cc3c([nH]1)CCCC3)C(=O)N2 [SU6656] (first compound 2 µM, partner dose 0.4 µM)	87.3%	99.6%	92.9%	105%	132%	121%
O=C(Nc1cc(C(F)(F)F)cc(C(F)(F)F)c1)c1cc(Cl)ccc1O + C#Cc1cccc(Nc2ncnc3cc(OCCOC)c(OCCOC)cc23)c1 [erlotinib] (first compound 0.016 µM, partner dose 0.8 µM)	95.8%	102%	91.8%	85%	85.2%	113%
O=C(Nc1cc(C(F)(F)F)cc(C(F)(F)F)c1)c1cc(Cl)ccc1O + Cn1cnc2c(F)c(Nc3ccc(Br)cc3Cl)c(C(=O)NOCCO)cc21 [selumetinib] (first compound 0.016 µM, partner dose 0.015 µM)	94.5%	122%	111%	89.7%	111%	97.6%
